This passage reports binding results from paper PMC2390759.

The chains behind the UniProt entries cited, without tags or fusion partners. Where a name states a change or a piece, a line headed by the entry shows the natural chain unless it says otherwise. A line that says so, or that is headed by a name, gives the form on record, which may keep a tag or linker. Residues count along the entry.
UniProt P09405: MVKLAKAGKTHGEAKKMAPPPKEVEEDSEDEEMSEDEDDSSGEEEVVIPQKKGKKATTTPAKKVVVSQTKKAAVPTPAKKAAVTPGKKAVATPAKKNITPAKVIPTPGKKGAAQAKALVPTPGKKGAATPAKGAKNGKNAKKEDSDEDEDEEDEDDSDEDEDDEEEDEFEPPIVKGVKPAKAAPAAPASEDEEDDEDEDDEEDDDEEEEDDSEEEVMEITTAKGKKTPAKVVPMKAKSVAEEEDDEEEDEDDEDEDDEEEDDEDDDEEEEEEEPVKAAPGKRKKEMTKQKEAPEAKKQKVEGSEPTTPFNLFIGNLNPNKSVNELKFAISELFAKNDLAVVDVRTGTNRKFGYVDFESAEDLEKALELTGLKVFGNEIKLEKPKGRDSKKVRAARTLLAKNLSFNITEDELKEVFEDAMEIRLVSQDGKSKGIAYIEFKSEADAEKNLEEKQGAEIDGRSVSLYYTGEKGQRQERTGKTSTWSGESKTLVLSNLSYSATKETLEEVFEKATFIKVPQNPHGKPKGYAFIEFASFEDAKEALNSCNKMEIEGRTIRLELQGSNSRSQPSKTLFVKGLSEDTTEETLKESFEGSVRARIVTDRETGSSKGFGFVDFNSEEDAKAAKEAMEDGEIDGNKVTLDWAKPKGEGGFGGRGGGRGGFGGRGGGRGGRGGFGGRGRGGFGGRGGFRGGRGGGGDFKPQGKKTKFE
ErbB4-JMa-cyt1 (Q15303, residues 26-1308): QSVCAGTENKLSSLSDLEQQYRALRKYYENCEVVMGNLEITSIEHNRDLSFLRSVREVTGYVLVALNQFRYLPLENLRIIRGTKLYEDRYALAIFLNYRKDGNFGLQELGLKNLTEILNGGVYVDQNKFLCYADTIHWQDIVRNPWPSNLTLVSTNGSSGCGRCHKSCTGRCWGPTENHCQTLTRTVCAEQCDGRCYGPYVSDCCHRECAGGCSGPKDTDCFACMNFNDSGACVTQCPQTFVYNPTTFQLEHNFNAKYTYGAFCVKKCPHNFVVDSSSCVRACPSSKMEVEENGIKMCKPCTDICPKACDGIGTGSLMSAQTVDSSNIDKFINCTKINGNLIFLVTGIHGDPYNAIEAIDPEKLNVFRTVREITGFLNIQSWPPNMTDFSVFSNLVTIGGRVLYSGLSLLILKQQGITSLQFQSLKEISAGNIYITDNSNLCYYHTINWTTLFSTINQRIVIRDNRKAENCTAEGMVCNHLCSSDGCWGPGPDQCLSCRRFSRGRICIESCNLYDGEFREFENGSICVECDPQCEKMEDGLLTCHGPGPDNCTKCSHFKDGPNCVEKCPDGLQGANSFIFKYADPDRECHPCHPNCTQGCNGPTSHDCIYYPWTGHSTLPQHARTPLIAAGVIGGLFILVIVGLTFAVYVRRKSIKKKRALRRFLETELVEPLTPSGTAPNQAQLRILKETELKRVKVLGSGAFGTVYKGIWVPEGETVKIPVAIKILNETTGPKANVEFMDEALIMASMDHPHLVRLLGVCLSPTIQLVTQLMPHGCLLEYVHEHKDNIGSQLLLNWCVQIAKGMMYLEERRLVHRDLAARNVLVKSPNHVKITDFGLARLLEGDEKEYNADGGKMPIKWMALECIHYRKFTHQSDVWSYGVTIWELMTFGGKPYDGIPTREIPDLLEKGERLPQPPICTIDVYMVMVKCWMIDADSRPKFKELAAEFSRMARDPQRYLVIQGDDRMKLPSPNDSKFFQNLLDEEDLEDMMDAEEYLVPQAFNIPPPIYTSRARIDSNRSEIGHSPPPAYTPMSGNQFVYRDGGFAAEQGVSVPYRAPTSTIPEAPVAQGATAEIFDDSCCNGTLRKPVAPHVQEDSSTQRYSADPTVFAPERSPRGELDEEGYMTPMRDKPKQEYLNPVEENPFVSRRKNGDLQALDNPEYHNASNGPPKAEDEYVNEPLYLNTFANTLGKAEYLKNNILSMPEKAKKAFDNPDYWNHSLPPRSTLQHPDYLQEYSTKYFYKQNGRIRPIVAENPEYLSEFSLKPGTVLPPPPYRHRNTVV
ErbB4-JMb-cyt2 (Q15303, form named): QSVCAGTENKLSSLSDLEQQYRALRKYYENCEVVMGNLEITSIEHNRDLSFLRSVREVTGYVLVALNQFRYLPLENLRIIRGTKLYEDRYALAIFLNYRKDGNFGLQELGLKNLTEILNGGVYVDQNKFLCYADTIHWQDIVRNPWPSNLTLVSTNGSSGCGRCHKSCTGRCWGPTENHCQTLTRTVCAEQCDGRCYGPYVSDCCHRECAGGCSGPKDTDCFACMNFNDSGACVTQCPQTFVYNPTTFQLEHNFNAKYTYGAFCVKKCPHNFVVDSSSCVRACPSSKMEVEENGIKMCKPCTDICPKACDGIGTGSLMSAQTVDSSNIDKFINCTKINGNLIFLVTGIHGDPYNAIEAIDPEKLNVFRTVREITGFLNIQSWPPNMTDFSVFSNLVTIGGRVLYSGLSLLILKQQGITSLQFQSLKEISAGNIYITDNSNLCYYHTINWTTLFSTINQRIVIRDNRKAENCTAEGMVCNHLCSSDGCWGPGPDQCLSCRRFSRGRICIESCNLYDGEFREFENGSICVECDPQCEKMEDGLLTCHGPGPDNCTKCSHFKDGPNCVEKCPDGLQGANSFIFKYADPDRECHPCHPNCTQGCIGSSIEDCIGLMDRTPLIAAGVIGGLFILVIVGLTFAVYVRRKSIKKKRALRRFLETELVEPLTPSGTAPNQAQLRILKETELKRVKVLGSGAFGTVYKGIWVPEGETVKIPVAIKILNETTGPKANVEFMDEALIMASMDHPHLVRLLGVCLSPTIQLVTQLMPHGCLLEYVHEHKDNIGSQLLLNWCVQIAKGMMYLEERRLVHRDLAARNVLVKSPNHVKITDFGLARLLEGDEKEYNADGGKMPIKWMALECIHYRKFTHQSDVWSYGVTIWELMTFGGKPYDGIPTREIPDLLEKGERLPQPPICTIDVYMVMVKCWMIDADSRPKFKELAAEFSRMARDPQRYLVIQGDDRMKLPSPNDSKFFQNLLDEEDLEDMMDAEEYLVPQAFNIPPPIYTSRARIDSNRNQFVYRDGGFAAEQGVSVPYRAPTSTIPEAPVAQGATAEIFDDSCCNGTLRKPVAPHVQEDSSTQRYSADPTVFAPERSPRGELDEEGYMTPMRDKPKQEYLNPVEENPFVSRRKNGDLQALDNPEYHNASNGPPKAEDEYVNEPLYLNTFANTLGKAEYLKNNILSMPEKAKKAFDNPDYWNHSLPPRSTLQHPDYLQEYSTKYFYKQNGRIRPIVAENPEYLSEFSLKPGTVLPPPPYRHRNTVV
ErbB4-JMb-cyt1 (Q15303, form named): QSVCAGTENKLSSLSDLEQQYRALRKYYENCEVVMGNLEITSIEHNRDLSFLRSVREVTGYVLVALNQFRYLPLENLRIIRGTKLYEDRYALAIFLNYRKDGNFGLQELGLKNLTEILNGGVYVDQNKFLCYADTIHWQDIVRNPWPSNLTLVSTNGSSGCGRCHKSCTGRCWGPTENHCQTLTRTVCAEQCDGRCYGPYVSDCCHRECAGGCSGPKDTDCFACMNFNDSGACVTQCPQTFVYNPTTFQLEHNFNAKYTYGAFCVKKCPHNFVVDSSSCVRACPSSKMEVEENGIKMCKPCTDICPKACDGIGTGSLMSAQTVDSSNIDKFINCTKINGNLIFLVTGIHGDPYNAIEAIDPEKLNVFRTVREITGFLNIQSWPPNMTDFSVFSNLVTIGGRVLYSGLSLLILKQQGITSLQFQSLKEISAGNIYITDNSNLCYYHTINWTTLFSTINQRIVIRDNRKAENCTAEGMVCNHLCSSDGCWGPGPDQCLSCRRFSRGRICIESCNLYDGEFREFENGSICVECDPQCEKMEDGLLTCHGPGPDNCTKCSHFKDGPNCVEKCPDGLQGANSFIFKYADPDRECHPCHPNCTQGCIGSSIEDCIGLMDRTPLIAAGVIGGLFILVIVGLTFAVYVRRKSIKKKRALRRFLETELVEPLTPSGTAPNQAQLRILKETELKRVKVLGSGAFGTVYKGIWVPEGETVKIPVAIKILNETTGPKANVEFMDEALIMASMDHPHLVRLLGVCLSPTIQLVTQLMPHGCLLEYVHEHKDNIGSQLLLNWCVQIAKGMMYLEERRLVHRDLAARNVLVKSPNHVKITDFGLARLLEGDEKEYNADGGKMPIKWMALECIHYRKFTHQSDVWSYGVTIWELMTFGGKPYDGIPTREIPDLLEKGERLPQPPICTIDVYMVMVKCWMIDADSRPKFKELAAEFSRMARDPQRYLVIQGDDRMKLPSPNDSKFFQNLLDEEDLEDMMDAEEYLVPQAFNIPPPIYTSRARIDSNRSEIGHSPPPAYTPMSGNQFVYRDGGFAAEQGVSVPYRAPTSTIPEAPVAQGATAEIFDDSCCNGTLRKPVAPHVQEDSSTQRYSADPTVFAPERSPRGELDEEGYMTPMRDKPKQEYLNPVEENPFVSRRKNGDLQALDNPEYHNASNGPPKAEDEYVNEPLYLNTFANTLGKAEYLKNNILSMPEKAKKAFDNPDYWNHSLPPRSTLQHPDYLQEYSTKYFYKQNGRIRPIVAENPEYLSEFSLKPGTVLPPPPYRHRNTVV
ErbB4-JMa-cyt2 (Q15303, form named): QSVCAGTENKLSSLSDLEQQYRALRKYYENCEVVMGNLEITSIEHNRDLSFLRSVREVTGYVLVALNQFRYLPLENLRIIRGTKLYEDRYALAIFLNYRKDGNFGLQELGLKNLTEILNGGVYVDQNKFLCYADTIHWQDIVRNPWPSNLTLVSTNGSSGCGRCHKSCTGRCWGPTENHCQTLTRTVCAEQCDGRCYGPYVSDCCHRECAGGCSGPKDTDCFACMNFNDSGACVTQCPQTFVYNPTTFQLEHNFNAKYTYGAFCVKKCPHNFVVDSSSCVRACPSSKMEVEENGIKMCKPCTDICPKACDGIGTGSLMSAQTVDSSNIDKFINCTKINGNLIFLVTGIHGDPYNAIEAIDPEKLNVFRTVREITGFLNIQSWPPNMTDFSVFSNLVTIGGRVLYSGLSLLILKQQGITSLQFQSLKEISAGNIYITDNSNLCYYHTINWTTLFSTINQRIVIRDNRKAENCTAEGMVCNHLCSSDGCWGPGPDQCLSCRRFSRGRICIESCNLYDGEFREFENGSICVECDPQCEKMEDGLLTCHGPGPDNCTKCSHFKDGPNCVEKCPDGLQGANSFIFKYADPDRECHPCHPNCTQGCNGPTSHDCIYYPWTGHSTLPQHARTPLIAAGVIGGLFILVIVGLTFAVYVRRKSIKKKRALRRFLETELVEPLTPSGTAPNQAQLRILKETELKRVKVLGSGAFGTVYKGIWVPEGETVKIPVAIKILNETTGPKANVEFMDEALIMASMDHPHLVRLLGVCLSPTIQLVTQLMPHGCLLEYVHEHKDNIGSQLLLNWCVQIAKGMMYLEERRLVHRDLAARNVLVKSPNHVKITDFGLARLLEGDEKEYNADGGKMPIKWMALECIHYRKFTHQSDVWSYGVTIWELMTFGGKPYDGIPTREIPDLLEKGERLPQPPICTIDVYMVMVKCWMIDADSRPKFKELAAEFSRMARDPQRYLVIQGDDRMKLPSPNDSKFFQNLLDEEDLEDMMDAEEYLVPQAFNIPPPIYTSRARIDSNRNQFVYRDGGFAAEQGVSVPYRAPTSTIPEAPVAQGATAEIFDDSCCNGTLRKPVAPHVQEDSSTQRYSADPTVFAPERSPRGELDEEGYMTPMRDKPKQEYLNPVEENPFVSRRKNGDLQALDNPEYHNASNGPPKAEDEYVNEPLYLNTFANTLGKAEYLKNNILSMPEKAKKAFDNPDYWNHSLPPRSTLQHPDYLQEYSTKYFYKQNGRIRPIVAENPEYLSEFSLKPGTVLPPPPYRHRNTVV
UniProt P19338: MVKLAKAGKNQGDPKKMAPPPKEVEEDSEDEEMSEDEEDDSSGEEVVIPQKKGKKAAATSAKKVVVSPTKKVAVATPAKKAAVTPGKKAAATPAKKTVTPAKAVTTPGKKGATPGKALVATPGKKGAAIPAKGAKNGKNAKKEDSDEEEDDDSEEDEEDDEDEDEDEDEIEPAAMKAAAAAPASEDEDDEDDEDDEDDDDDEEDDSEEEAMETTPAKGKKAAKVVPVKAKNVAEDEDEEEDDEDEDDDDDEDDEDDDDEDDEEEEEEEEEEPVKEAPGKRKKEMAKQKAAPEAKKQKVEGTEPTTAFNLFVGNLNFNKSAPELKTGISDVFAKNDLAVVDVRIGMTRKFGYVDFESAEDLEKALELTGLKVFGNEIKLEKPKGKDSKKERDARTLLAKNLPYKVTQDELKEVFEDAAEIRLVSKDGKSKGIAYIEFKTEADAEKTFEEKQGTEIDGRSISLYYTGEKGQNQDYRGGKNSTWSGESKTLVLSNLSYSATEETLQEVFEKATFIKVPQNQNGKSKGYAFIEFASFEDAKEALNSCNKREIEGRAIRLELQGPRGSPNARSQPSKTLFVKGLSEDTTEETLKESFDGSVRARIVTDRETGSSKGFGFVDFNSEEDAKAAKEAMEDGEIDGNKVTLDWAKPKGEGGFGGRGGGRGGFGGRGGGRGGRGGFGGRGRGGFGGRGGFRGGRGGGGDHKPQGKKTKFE

Results are given in words; binding and its absence hold for the method and conditions named. In cells and extracts the contact can be indirect. Some binding calls cover weakened binding; strength is not graded here.

Test [1] concerns the target C-terminally Myc-tagged mouse nucleolin (mouse) (UniProt P09405). Put plainly: co-IP; COS7 co-transfected; total membrane (pellet, insoluble) fraction immunoprecipitated with anti-Myc (nucleolin) or anti-HA (control), blotted with specific ErbB antibodies.
For test [2] the target is unchanged. Put plainly: co-IP; COS7 co-transfected; cell lysates immunoprecipitated with anti-Myc, blotted with anti-ErbB4; 2 h at 4°C, washed with HNTG.
A further test concerns the target Myc-TGFβIIR (UniProt P37173). The test is described as above.
Another test addresses ErbB4-JMb-cyt2 (UniProt Q15303). Put plainly: co-IP; COS7 co-transfected with ErbB4 isoforms and Myc-GFP-Nucleolin; cell lysates immunoprecipitated with anti-ErbB4, blotted with anti-GFP or anti-Myc.
A further test deals with ErbB4-JMb-cyt1 (UniProt Q15303). The description is as above.
The next test deals with ErbB4-JMa-cyt1 (UniProt Q15303). The test is described as above.
The target of a further test is ErbB4-JMa-cyt2 (UniProt Q15303). The test is described as above.
The target of test [3] is endogenous nucleolin of SKBR3 breast cancer cells (human (endogenous in SKBR3)) (UniProt P19338). Put plainly: co-IP; SKBR3 cell lysates, endogenous proteins; immunoprecipitated with anti-nucleolin or anti-ErbB2, blotted with anti-ErbB2 or anti-nucleolin.

With “ErbB3 (from UniProt P21860 20-1342) (receptor)”, in test [1], the binding result was “binds”. “ErbB2 (from UniProt P04626 23-1255) (receptor)”: in test [1], the binding entry was “binds”.

Regarding “ErbB4 (expression vector, isoform not named) (from UniProt Q15303 26-1308) (receptor)”, the binding entry in test [2] is “binds”; with Myc-TGFβIIR, “no binding”; in test [1] it was “binds”. For “GFP-fused Nucleolin-Myc (from UniProt P09405 1-707)”, the binding result in the test with ErbB4-JMb-cyt2, in the test with ErbB4-JMb-cyt1, with ErbB4-JMa-cyt1 and with ErbB4-JMa-cyt2 was “binds” in each case. Take “endogenous ErbB2 of SKBR3 breast cancer cells (from UniProt P04626 23-1255) (receptor)”: the binding entry in test [3] is reported as “binds”. As to “ErbB1 (from UniProt P00533 25-1210) (receptor)”, the binding entry in test [1] was “binds”.
